From the supplement of paper PMC3334620
In all, about 33,000 sequences were measured (“E-score (-0.5 to 0.5)”: median about -0.056, highest 2% from about 0.38 on). This is one part of the list.

Target: Stb4 (UniProt P50104)
Experiment: PBM E-score (8-mer binding enrichment) (E-score (-0.5 to 0.5)); higher = stronger / more preferred TF binding; most listed sequences are background and not binding sites
Conditions: protein concentration: 200 nM; construct: GST-DNA-binding domain
In short: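 The E-score, a modified Wilcoxon-Mann-Whitney statistic, was computed by the Universal PBM Analysis Suite for every ungapped eight-base word pooled with its reverse complement. Scans behind it were normalised with masliner after bound GST-tagged yeast transcription factors were detected with fluorescent anti-GST. The proteins, at about 100-200 nM, had been applied to universal all-10-mer Agilent arrays made double-stranded by primer extension.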

Sequence | PBM E-score
GACCGGCA | 0.212
GTGATGAA | -0.174
TCCCAAGA | 0.00213
GTAATGCA | -0.0927
CACATGAC | -0.231
AATAATGT | -0.0686
CGAACGGA | 0.327
ACAAACAT | 0.0555
AAAAGCTG | -0.15
GTAACGCA | -0.0681
CCAGAGTC | -0.319
ATGTCTTA | -0.207
CCAGCTAA | -0.373
ATTCAGTA | -0.0971
ACACGGGT | 0.165
GGGTAACC | 0.18
AAATATTC | 0.0462
CGAGTAAA | 0.143
CCCTTGGC | -0.228
GTCTGGGA | -0.232
AAATAGAA | -0.148
GATATTAC | 0.185
AGCGGTGC | -0.305
CGCGTTTC | 0.065
CATGCAGA | -0.123

Sequence | PBM E-score
CTAGGCTA | -0.153
AGCGGCAC | 0.0262
AATCGTAT | -0.129
AGGTGTAG | -0.208
ACCTTGCC | 0.0883
ACGCCAAC | -0.0436
GGCCGAGA | 0.347
TGCTGGAA | -0.00327
CAACACAG | -0.278
GGCGTTGA | -0.0341
GTTACTGA | 0.0988
AACGCGTA | -0.0979
AGAACACG | 0.0149
GGCACTAC | -0.0281
CGATTTAG | 0.133
GCGCTAAA | -0.0799
GTTCGTTA | -0.0433
AAGTCGGT | 0.225
CGGTTGAG | 0.151
ATGTGCGG | 0.146
ACTATTCC | 0.211
GGTACTGA | 0.00824
GAGTCGCC | 0.0554
CGGAATAC | 0.374
ATCGTACA | -0.00518

Sequence | PBM E-score
AGGTCTCA | -0.0444
CATCCTAG | -0.164
AGGAAGAG | -0.0507
ACACTCTA | -0.00882
ACGGAGAG | 0.117
TACTAAAA | -0.0363
TCCTCACA | -0.122
ACCCGTCT | 0.0939
AAATGTCA | -0.0833
GAGAGTGA | -0.17
CACTCTTA | -0.263
GACACCTC | -0.0244
CTTGAAAC | 0.114
GCGTGTCA | -0.00144
GCCCGGGC | 0.282
ACTCCAGA | -0.286
CTTCGACA | -0.0919
ACTAGTAG | -0.0993
AGAACGAT | -0.296
ATGCGCAC | -0.0567
CAAACGAC | 0.011
AGGGCGAA | -0.0324
AAAGCGTG | -0.0283
CCTGAGGC | -0.268
CCAGCCCA | -0.161

Sequence | PBM E-score
CCGAACGA | 0.379
GGGAAACA | 0.175
ATTTTTTA | 0.0837
AATGTATG | -0.146
AGCCCGCG | 0.0998
TGTCGGAA | 0.416
GATCGCCA | -0.102
CATCCATG | -0.22
GACCGGAA | 0.316
ACTAAATC | 0.0611
CACACGGC | 0.132
AAAGATGA | -0.0904
CAGTATAG | -0.123
AGATTGAG | -0.0826
GGAAGTGA | 0.245
CAATCACC | -0.0604
AAGATGAC | -0.304
CGCGCGCC | 0.0774
CAAAACGC | 0.0775
CGCTTTAC | -0.0267
AACGGGGA | -0.08
GCCAAGGA | -0.135
CGTGTTTA | -0.00808
CGCGGACA | 0.107
GCCTGCGA | -0.339

Sequence | PBM E-score
TCATCCAA | -0.191
AATGAACT | 0.231
GCAATTGA | -0.136
CTGTTAGC | 0.0754
GCGGGAGA | 0.227
AAGAAGGA | -0.131
TGAGTGCA | -0.0867
GAGTCAAC | 0.0604
AAGGATAT | -0.0336
CCCGCAAG | -0.203
ACACCGCA | 0.0369
AATTTTTA | 0.0424
AACACCCG | 0.4
AATTAGGA | -0.00464
ACAGAGGC | -0.126
ATAAGTAC | -0.0437
CCAAGGCG | -0.124
ATTAAGGG | -0.207
GACACCGC | -0.0266
CGTTTTTC | 0.0065
CCGCAGAC | 0.0637
CCTACGCG | -0.00082
AGTGCTCG | 0.0663
GCTAGGAA | -0.0752
CCAACAGA | -0.177

Sequence | PBM E-score
CACCTACC | -0.0395
CAGAAAAA | -0.128
CATTCTAG | -0.421
GGGCTAAA | 0.0708
ATCTCGAG | -0.0973
AGCGGGGA | 0.0136
CGGGTTTA | 0.389
ACACCGCT | -0.0884
ACACGTAC | -0.0351
CAACGGTC | -0.117
AGAGGCGA | -0.258
AGAGGCAA | -0.108
ACCTTCTA | -0.272
GCCCCATA | -0.115
GGAGGCCA | 0.0531
GAGCAATC | 0.0177
AGGTAATG | -0.0367
GCTTGGAA | -0.166
AATTTAAA | 0.0232
CTCGTGAC | -0.223
ACGACCAA | -0.163
ACACTTCG | 0.0288
CACAGAGG | -0.326
GGACCTAC | -0.0318
CCTGGCCG | -0.0778

Sequence | PBM E-score
AAATTTCT | 0.00042
CCTATGCA | -0.102
ACAATTTC | -0.0822
CATTCGGA | 0.383
CCATCCAA | -0.143
CGGGGTAA | 0.181
ATCTGCCG | 0.362
GACCACGC | -0.0599
CCACACGC | 0.0565
TCTCGCCA | -0.167
CGTTGTTC | 0.0428
CAAGTAAA | 0.0875
CGTGCTAC | -0.0417
ACCTGGTC | 0.0494
CTGGTAGA | -0.0837
AGCTTCCA | 0.0259
CTTAGAGC | -0.059
ACAGAGGT | -0.307
GGGTGGTA | 0.109
CGTTGAAC | -0.0659
AGCGATAA | -0.0303
CGTAACAC | -0.0366
